# Laboratory results taken from the supplement of paper PMC10126150.
# Sequences with one replicate were seen in a single cluster, so their values are uncertain.
# Test system: ATP
# Test: switch fluorescence ratio, 500 uM ATP over buffer (Cy3 cluster intensity, sum of 5 cycles each) (fold (ratio)); higher = stronger signal-on switching upon ATP binding; sequences stand for … in TCGTCGGCAGCGTCAGATGTGTATAAGAGACAGTTTTTTTTTTTTTTTTTTTTTTTTT…TC
# Settings: aptamer strand: ATP DNA aptamer (quencher-CACCTGGGGGAGTATTGCGGAGGAAGG + anchor), 100 nM annealed; ATP concentration: 500 uM; one replicate
# In short: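 Clusters carrying Cy3-labelled switching strands on a modified Illumina MiSeq flow-cell were annealed to 100 nM quencher-labelled ATP aptamer and imaged in selection buffer. They were imaged again after 15 min with 500 uM ATP at 22 °C, over five buffer/ATP cycles with NaOH stripping and re-annealing in between. For each cluster, the fluorescence ratio is the summed Cy3 intensity of the target cycles divided by that of the buffer cycles, averaged per switch-domain sequence. Clusters outside 100-1000 RFU were left out.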
# 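Further: ATP exposure 15 min at 22 °C before imaging.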
row,Sequence,switch fluorescence ratio
1,GCAGTTAAA,0.987
2,GCAGTTCAGG,1.05
3,GCAGTTGGCG,0.999
4,GCAGTTGTCA,0.992
5,GCATAAGGT,1
6,GCATACCCGC,1.19
7,GCATACCGTG,1
8,GCATAGCCAC,1.04
9,GCATAGTCGG,1.02
10,GCATAGTGTA,1.04
11,GCATATCCTG,0.994
12,GCATCAGAGT,0.967
13,GCATCAGGCC,1.02
14,GCATCGCTGG,0.954
15,GCATCTCACG,1.08
16,GCATCTGTTG,0.95
17,GCATGAGGG,1.02
18,GCATGCCGAT,0.976
19,GCATGGAATG,0.977
20,GCATGGGTAA,0.962
21,GCATGTTGCG,0.993
22,GCATTAGAGG,1.01
23,GCATTAGTAA,1
24,GCATTATGAT,1.04
25,GCATTCTTG,1.01

row,Sequence,switch fluorescence ratio
1,GCATTGAAA,1.02
2,GCATTTGGAG,1.03
3,GCCAAACAAT,1.03
4,GCCAAAGATG,0.973
5,GCCAAATGGC,1
6,GCCAATAACT,1.11
7,GCCAATATAA,1.04
8,GCCAATCATG,0.959
9,GCCAATGCAG,0.968
10,GCCAATTTCA,1
11,GCCACAGAGC,1.1
12,GCCACAGGGG,4.32
13,GCCACCCAGC,1.05
14,GCCACCCTGC,1.05
15,GCCACGAAAT,1.06
16,GCCACGAAGG,0.996
17,GCCACTGCGT,1.02
18,GCCAGACGCC,1.1
19,GCCAGCAAGA,1.41
20,GCCAGCCGGA,1.01
21,GCCAGGACTG,1.03
22,GCCAGGAGTC,1.03
23,GCCAGGTTTT,1.06
24,GCCAGTAGGG,0.979
25,GCCATACGG,1.02

row,Sequence,switch fluorescence ratio
1,GCCATAGCAT,1.03
2,GCCATCATGT,1.01
3,GCCATCTCGT,1.02
4,GCCATGACAG,1.01
5,GCCATTCCA,0.988
6,GCCATTCGTG,1
7,GCCATTTGCA,1
8,GCCATTTGGA,1.03
9,GCCCAACGGG,0.99
10,GCCCAGTACG,1.17
11,GCCCCCAGGG,1.37
12,GCCCCCCGGG,1.29
13,GCCCCGCTCT,1.06
14,GCCCCTGGAT,1.04
15,GCCCGCATTA,4.14
16,GCCCGGGATC,1.06
17,GCCCGGGTTG,1.26
18,GCCCGGTTAC,1.78
19,GCCCGTTAGG,0.987
20,GCCCTAGTTA,0.975
21,GCCCTGAATC,1.03
22,GCCCTGTCGA,1.01
23,GCCCTTAGAT,0.964
24,GCCCTTGGGG,0.983
25,GCCCTTTAGA,1.01

row,Sequence,switch fluorescence ratio
1,GCCCTTTCGG,1
2,GCCGAAAGTG,1.02
3,GCCGAAGGAA,1.13
4,GCCGAGCGAG,0.982
5,GCCGAGCTTG,1.01
6,GCCGAGGAGA,1.01
7,GCCGAGGTAC,1.18
8,GCCGAGTAG,0.981
9,GCCGAGTCGC,0.995
10,GCCGATAAGT,0.994
11,GCCGATTGTA,0.967
12,GCCGATTT,1.07
13,GCCGCAAGCT,2.22
14,GCCGCCAAGC,1.45
15,GCCGCCCGTG,1.03
16,GCCGCCGGG,1.01
17,GCCGCGACCC,1.41
18,GCCGCGGGG,0.959
19,GCCGCTACGT,1.08
20,GCCGGACGCA,1.19
21,GCCGGATGTT,0.961
22,GCCGGCTGGG,1.01
23,GCCGGGGACT,0.98
24,GCCGGGGGC,1.07
25,GCCGGGTAGT,0.998

row,Sequence,switch fluorescence ratio
1,GCCGGTAGGA,0.962
2,GCCGGTGCCA,1.02
3,GCCGTAAAGT,0.98
4,GCCGTAGAGT,1
5,GCCTAACTTG,1.01
6,GCCTAGCATT,0.998
7,GCCTAGTAAC,0.957
8,GCCTAGTTAA,0.992
9,GCCTATATGA,1.02
10,GCCTATGGCG,0.984
11,GCCTCAAAGC,1.01
12,GCCTCACGCT,1.08
13,GCCTCAGTTC,0.92
14,GCCTCTGTTC,1.05
15,GCCTGAAGGA,0.98
16,GCCTGAGTCA,1.09
17,GCCTGATATG,1.01
18,GCCTGATGAT,0.955
19,GCCTGCTCCG,1.76
20,GCCTGTGACT,1.04
21,GCCTTATGAG,0.983
22,GCCTTATGTT,0.975
23,GCCTTATTAT,1.02
24,GCCTTCCATA,1.37
25,GCCTTCCGAG,3.41

row,Sequence,switch fluorescence ratio
1,GCCTTGAGCG,1.02
2,GCCTTTAGGT,1.04
3,GCCTTTCGCG,1.38
4,GCCTTTTAAC,1.02
5,GCCTTTTTCC,1.19
6,GCGAAAGCAA,1.03
7,GCGAAATAAC,1.27
8,GCGAACAAAT,1.05
9,GCGAACGTGT,0.989
10,GCGAAGCCAA,1.06
11,GCGAATCGTT,1.03
12,GCGAATCTAT,0.967
13,GCGAATTCAT,1.01
14,GCGAATTCTG,0.993
15,GCGACGTCTT,1.03
16,GCGACGTGCC,1.05
17,GCGAGAATTG,1.06
18,GCGAGCAGGT,1.06
19,GCGAGCGGGG,0.964
20,GCGAGTAATT,1
21,GCGAGTTCCT,1.01
22,GCGAGTTGGA,0.991
23,GCGATCCTTT,1.02
24,GCGATCGGTA,0.979
25,GCGATCTTTA,1.01

row,Sequence,switch fluorescence ratio
1,GCGATGTGTG,1
2,GCGATTATG,1.02
3,GCGATTCAGC,0.987
4,GCGATTCCGG,0.985
5,GCGATTGCAC,1.03
6,GCGATTGTCT,1.03
7,GCGCAAAAAA,1.03
8,GCGCAAAATG,0.999
9,GCGCAACGAT,1.04
10,GCGCAAGGAG,1.06
11,GCGCACAAAG,1.01
12,GCGCACTAAC,3.37
13,GCGCAGCTGC,1.07
14,GCGCAGGATC,1.12
15,GCGCAGGCTG,1.03
16,GCGCAGGGG,1.04
17,GCGCATCTGC,1.09
18,GCGCATTGCC,1.17
19,GCGCCAGTGT,1.02
20,GCGCCATCTT,1.01
21,GCGCGACCGC,1.03
22,GCGCGACTGG,1.03
23,GCGCGGAAAG,1.04
24,GCGCGGAGA,1.02
25,GCGCGGTTGC,1.06

row,Sequence,switch fluorescence ratio
1,GCGCTATAGT,1.63
2,GCGCTGACAT,1.02
3,GCGCTGGTTC,1.06
4,GCGCTTAGCT,0.955
5,GCGCTTTCCT,1.59
6,GCGGAAGAGG,1.02
7,GCGGAAGTGG,0.991
8,GCGGAATGGC,1.07
9,GCGGAGGGAG,1.11
10,GCGGCACTA,1.06
11,GCGGCTAGTG,0.966
12,GCGGGACTA,0.999
13,GCGGGAGCTG,1
14,GCGGGCAGCG,1
15,GCGGGCCTTA,1
16,GCGGGCGTAC,1.11
17,GCGGGGCGA,1.02
18,GCGGGGGATT,0.989
19,GCGGGGGTGG,0.988
20,GCGGGGTTAG,1.02
21,GCGGGTAACT,0.966
22,GCGGGTTCTG,0.978
23,GCGGTATTTG,0.997
24,GCGGTGCAAT,1.12
25,GCGGTGGGGC,0.984
